# Test results as given in the supplement of paper PMC3334620.
# The full ranking holds about 33,000 sequences; the median of “E-score (-0.5 to 0.5)” is about -0.053, and the highest 2% start at about 0.37. The list shows a part of the results.
# Molecular target: Hap1 (UniProt P0CE41)
# Experiment: PBM E-score (8-mer binding enrichment) (E-score (-0.5 to 0.5)); higher = stronger / more preferred TF binding; most listed sequences are background and not binding sites
# Conditions: protein concentration: 200 nM; construct: GST-DNA-binding domain
# How it was run: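 The E-score, a modified Wilcoxon-Mann-Whitney statistic, was computed by the Universal PBM Analysis Suite for every ungapped eight-base word pooled with its reverse complement. Scans behind it were normalised with masliner after bound GST-tagged yeast transcription factors were detected with fluorescent anti-GST. The proteins, at about 100-200 nM, had been applied to universal all-10-mer Agilent arrays made double-stranded by primer extension.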
# UniProt P0CE41, sequence (P0CE41 whole entry): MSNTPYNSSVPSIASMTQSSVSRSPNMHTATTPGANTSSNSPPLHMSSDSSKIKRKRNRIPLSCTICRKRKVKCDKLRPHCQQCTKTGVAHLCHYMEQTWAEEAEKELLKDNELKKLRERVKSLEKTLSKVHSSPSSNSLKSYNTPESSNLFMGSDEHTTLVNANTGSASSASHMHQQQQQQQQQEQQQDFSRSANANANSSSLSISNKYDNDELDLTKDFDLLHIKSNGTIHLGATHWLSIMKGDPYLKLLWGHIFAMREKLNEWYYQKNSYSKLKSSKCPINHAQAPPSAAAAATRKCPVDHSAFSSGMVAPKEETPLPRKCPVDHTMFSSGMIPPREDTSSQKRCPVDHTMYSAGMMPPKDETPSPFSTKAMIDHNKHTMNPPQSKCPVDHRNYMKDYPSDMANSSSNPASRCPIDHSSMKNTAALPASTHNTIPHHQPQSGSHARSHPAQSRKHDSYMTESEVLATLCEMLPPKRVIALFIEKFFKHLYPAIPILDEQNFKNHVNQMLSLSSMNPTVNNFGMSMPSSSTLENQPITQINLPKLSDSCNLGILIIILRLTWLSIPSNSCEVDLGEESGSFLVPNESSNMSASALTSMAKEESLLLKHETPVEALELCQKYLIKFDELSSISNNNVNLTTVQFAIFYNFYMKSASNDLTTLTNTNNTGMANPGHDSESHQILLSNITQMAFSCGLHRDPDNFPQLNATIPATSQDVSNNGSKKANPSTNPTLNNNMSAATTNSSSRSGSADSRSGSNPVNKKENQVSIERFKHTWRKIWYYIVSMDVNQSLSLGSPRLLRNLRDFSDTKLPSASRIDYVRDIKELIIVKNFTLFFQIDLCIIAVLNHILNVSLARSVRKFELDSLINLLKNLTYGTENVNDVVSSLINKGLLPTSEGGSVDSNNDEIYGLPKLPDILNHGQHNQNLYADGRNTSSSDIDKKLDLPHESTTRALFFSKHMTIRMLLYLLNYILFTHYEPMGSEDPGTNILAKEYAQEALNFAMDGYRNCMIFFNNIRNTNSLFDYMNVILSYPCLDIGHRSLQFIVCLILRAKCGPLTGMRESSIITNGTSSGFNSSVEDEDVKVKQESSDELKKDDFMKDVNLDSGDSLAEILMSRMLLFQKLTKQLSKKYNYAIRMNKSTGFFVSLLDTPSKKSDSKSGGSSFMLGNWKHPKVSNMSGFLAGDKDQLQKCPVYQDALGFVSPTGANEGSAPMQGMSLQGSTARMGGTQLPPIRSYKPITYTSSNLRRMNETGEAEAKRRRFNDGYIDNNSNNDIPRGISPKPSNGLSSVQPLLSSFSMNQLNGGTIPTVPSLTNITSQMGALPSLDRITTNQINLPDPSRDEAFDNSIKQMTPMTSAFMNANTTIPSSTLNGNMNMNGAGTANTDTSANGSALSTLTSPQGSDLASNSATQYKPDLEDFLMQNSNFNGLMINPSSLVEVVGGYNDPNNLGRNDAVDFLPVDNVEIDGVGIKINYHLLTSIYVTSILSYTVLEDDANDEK
row,Sequence,PBM E-score
1,GCATCAAA,-0.148
2,AAGACTAC,0.0593
3,ATAGACTA,-0.331
4,CCCACTAC,-0.0714
5,CATCTACA,-0.158
6,AAGCAAGT,-0.0508
7,ATCCAAGC,-0.227
8,GGGTCATA,-0.00686
9,AACACGGG,-0.0573
10,ACAAATCC,0.136
11,CCGTAAGC,0.115
12,GTGGTCGA,-0.228
13,AGACGCAC,-0.0101
14,CCTCGCCA,-0.206
15,GGCGGCTA,0.0808
16,AGATCCTA,-0.304
17,CACCTTGA,-0.0141
18,ACCCACGC,-0.00311
19,TTCGAGAA,-0.254
20,CCACGTGG,-0.282
21,CAATCTAA,-0.0312
22,AGTGTATA,-0.337
23,GAGTTCGC,0.195
24,ACTCCAGG,-0.00965
25,GCTAGTAA,-0.0325

row,Sequence,PBM E-score
1,CGCGTGAG,-0.0389
2,AGCGAGCT,0.135
3,AGGTTCAC,-0.119
4,GACCGGTA,0.243
5,AAACTACT,-0.0832
6,AAAGATGT,-0.104
7,CCTAGCCC,-0.0624
8,GAGGAGCC,-0.252
9,CGTTGATC,-0.0423
10,CACAGGCA,-0.245
11,AACGGAGA,0.357
12,ATATCGCG,0.314
13,CGTGCGTC,0.107
14,CATTCACC,0.228
15,CAAGGCTG,-0.416
16,GGCAGTCA,-0.0785
17,AACGTACA,-0.191
18,CGGCCGGC,0.422
19,GGTAACTA,0.166
20,CAGGAAAG,-0.244
21,CCTAAAAG,-0.318
22,ACGCGTGA,0.0483
23,ACTGTGGC,-0.309
24,AACGGCTC,0.199
25,AGCTGTCA,-0.173

row,Sequence,PBM E-score
1,CGCCTTAG,0.0658
2,CTCCACTC,-0.28
3,AACGCCCA,0.0103
4,CAGAAACC,-0.0171
5,CACAGGGA,-0.198
6,CGTTCGGA,0.412
7,AGCTCTAT,-0.177
8,AGGTAAAC,0.0335
9,CGTGCAAG,-0.176
10,GAATCCAC,-0.109
11,CATATCCG,0.343
12,CAACGTGC,-0.179
13,ATATAGCG,0.0252
14,CTCCGTCC,0.307
15,AGCACCAT,-0.246
16,GACAGCGA,-0.0893
17,GGATCACC,0.05
18,CTTAATTC,0.15
19,GGTTATTA,0.145
20,ATCACCCA,-0.0238
21,GTACGACA,-0.02
22,ACCTATTG,-0.136
23,GGAATCCC,0.0567
24,GCGGCTCC,-0.0125
25,AGCACCCG,0.13

row,Sequence,PBM E-score
1,CCGTGGCA,0.0571
2,ACGAATAT,-0.0622
3,CGCTTAGC,0.0439
4,AGGGACAC,-0.121
5,GGGGCTTA,0.186
6,CAGTCTGC,-0.192
7,ACGATAGC,0.0603
8,AAACACCG,0.388
9,AGCGACGC,-0.0688
10,ACTTTAGA,0.0341
11,ACTTCACG,-0.182
12,ACGCATTC,0.0114
13,CACAGATA,-0.256
14,AAAAGCAT,-0.0584
15,AATTCCGC,0.336
16,ATGACCAC,-0.0995
17,GATTCAAC,0.0615
18,GTGCGGAA,0.159
19,GGACCATA,0.124
20,ACCGATGA,0.223
21,ATACAACC,0.0766
22,CCCATTCA,0.0364
23,ACTTGAAA,-0.0915
24,AGGTTGTG,-0.338
25,ATGGCCGC,0.19

row,Sequence,PBM E-score
1,CACGTAGA,-0.228
2,CGTTTGGC,0.0309
3,GAACCCCA,0.117
4,CGACTAAC,0.0846
5,GCATACTA,-0.0297
6,CCTACCAG,-0.269
7,CCTAGCTA,-0.374
8,CCGGGTCA,0.3
9,CACATTTA,-0.286
10,CAGAAAGA,-0.208
11,TGAAATCA,0.0166
12,ACCGTTAA,0.287
13,GAGTTTGA,-0.00172
14,ACGGAAAC,0.287
15,ACCTGGCC,0.0949
16,CATATACG,-0.0979
17,ATTTATCG,0.281
18,CGAGTGCC,0.00199
19,AACAAGGA,-0.0118
20,GGAGCTCC,0.233
21,CCTGGGCG,-0.102
22,GGTCGGCA,0.209
23,AAGAGGCT,-0.249
24,ACATCTTC,0.0163
25,GATCGCGC,0.043

row,Sequence,PBM E-score
1,TCCCTAGA,-0.182
2,CAACCTGA,-0.389
3,CGTTCATA,-0.17
4,CACGATAA,0.087
5,CATGCCGC,0.177
6,ATCATCGA,-0.0995
7,TACGCAAA,-0.32
8,ATAGAACG,0.0373
9,AGTCGAGA,-0.0928
10,AAAGGCAG,-0.113
11,TAGTGGCA,-0.154
12,CAACGATC,-0.0496
13,TCAACGGA,0.254
14,CGACGGGA,0.189
15,AGTAGTAA,-0.182
16,AGATATCG,0.315
17,AGGGACCG,0.0343
18,CACTGTGA,-0.239
19,CTCTTGAA,-0.265
20,AATTAGAC,-0.199
21,ATGACTAG,-0.21
22,AGGAGCGA,-0.0207
23,ATTGGTCA,-0.0998
24,ATCCGGCA,0.329
25,AGCATAAT,0.0753

row,Sequence,PBM E-score
1,GCCCTCTA,-0.18
2,AAAACATG,-0.101
3,CAGTTACA,-0.0624
4,GCAGGGCA,-0.116
5,ACGCTCAG,-0.265
6,CTCTCGAC,-0.242
7,GCGATTCA,-0.0223
8,AGCTGATC,0.0339
9,CCGATCTC,0.278
10,CGGTACAG,0.157
11,AAGGACCT,-0.123
12,CGGTTAAG,0.146
13,AGTGAATC,-0.0162
14,GCAAGAGC,-0.151
15,GAATCCCC,0.109
16,CACATCCG,0.278
17,ACTCAGTC,-0.249
18,GCCAGTCA,-0.163
19,CGATGACG,0.202
20,ATTTGGTC,0.141
21,ACATAACC,0.0716
22,ACGCATCC,-0.0512
